Data published in PubChem BioAssay AID720708 (National Center for Advancing Translational Sciences (NCATS), 2013).
Out of some 360,000 compounds screened, about 660 (0.18%) were called active. This list was built around the results that the source calls inconclusive (neither active nor inactive); the mix of calls is not that of the screen. Calls come from the whole dose curve; as a rule, active = well fitted inhibition curve with a large enough effect; inconclusive = small, poorly fitted or top-dose-only effect; inactive = no such curve, though single readings can be large or run the other way. No potency is given beside an inconclusive call; the fits are too rough.

Target: Rap guanine nucleotide exchange factor 4 (Homo sapiens) (UniProt Q8WZA2)
Experiment: qHTS for Antagonist of cAMP-regulated guanine nucleotide exchange factor 2 (EPAC2): primary screen; note: nearly all actives have a fitted effect of over 45% in size
Settings: EPAC2 GEF exchange of Rap1B-BODIPY-GDP, fluorescence; activity, negative = inhibition: at 114 µM (top of the series) unless noted
% is set by controls: 0 for no effect and ±100 for the full control effect; potency is the fitted concentration of half-maximal effect; tags give direction and shape of the fitted curve.

UniProt Q8WZA2, sequence (Q8WZA2 whole entry, looked up): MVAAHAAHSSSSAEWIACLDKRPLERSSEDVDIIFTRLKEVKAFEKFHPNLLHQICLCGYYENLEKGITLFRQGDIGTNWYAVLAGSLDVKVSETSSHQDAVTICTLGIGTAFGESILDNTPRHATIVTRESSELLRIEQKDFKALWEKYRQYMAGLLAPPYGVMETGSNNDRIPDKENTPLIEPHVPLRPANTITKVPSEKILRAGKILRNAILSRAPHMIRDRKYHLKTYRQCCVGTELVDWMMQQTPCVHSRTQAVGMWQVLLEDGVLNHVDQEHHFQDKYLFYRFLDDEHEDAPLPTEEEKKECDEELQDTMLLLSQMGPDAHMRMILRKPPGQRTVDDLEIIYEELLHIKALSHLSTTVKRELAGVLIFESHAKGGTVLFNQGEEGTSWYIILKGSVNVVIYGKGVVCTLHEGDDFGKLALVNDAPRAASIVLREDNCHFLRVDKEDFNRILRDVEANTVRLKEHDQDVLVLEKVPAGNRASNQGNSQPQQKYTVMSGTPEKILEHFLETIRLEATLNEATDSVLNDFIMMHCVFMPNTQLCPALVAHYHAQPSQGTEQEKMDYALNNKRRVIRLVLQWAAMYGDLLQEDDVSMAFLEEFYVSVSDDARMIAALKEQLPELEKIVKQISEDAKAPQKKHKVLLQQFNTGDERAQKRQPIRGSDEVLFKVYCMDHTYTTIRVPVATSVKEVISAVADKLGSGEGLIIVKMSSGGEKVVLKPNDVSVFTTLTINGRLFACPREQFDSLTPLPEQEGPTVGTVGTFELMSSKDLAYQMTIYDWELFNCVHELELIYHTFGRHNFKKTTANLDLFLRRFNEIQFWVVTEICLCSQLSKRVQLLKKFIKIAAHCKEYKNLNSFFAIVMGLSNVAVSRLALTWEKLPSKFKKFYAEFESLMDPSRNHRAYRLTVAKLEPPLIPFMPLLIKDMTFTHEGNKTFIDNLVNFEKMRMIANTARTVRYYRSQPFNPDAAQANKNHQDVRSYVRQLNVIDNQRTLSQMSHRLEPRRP

SMILES	activity, negative = inhibition	Potency
c1ccc(Cc2nnc3n2N=C(c2ccccc2)CS3)cc1	inactive: -10.9%	
Cn1c(SCC(=O)Nc2ccc(C(N)=O)cc2)nnc1-c1cccs1	inconclusive: -13.1% [inhibitor]	
CCOC(=O)C1=C[C@@H](C(C)(C)C)N(S(=O)(=O)c2ccc(C)cc2)[C@H]1c1ccc(OC)cc1		inconclusive [inhibitor, partial curve]
CCN(CC)CCN(C(=O)c1cc2ccccc2cc1OC)c1nc2ccc(F)cc2s1		inconclusive [inhibitor, partial curve]
CCCCN(CCCC)c1ncnc2nc[nH]c12	inactive: -17.9%	
C=CCOc1ccc(/C=C(\C#N)C(=O)Nc2ccccn2)cc1	inactive: 3.43%	
Cc1nc(C/C(=N\Nc2ccccc2)c2ccc(O)cc2O)cs1		inconclusive [inhibitor, partial curve]
Cc1nc(CN(C)C(=O)c2cc(COc3c(F)cccc3F)on2)cs1	inactive: 2.92%	
CCOC(=O)c1c(C)[nH]c(C)c1C(=O)COC(=O)c1cc(OC)cc(OC)c1		inconclusive [inhibitor, partial curve]
CC1CCc2nc3ccc(S(=O)(=O)N4CCC(C(=O)NC5CCCC5)CC4)cc3c(C(=O)O)c2C1 (stereo not drawn)	inactive: 2.51%	
Cc1ccccc1Oc1nc(-c2ccccn2)nc2ccccc12		inconclusive [inhibitor, partial curve]
O=C(CCN1C(=O)CSc2ccccc21)Nc1cccc(C(F)(F)F)c1		inconclusive [inhibitor, partial curve]
CN1CCN(Cc2cc(COCc3ccccc3)c3cccnc3c2O)CC1	inactive: 4.51%	
CC(C)CC(NS(=O)(=O)OCC(Cl)(Cl)Cl)c1ccccc1 (stereo not drawn)		inconclusive [inhibitor, partial curve]
O=c1c2ccccc2ncn1CCCOc1ccccc1[N+](=O)[O-]	inactive: 6.02%	
CC(C)c1ccccc1NC(=O)CNCCc1ccc(C(F)(F)F)cc1		inconclusive [inhibitor, partial curve]
Cc1ccc(Sc2nc(C)c([N+](=O)[O-])c(C)c2C#N)cc1		inconclusive [inhibitor, partial curve]
CCCc1oc(C(=O)O)cc1CN	inactive: 9.66%	
C[C@@H]1CN([C@@H](C)CO)C(=O)c2ccccc2-c2ccccc2CO[C@@H]1CN(C)S(=O)(=O)c1ccc(C(F)(F)F)cc1		inconclusive [inhibitor, partial curve]
Cc1onc(-c2ccccc2Cl)c1C(=O)OCc1cnc(Cl)s1		inconclusive [inhibitor, full curve]
O=C(N/N=C/c1ccc(Sc2ccccn2)o1)c1cc2ccccc2cc1O	inactive: 1.18%	
O=C(O)c1ccccc1NC(c1ccccc1)c1ccc(Cl)cc1 (stereo not drawn)		inconclusive [inhibitor, partial curve]
FC(F)(F)c1cc(-c2ccccc2)nc(-n2cc(Cl)cn2)n1		inconclusive [inhibitor, full curve, poor fit]

SMILES	activity, negative = inhibition	Potency
C[C@H]1CN([C@@H](C)CO)C(=O)c2c(c3ccccc3n2C)-c2ccccc2CO[C@H]1CN(C)C(=O)[C@@H]1CCCN1C	inactive: -8.48%	
Clc1cccc(Cc2c(C3CCCCC3)nc3ccc(Cl)cn23)c1		inconclusive [inhibitor, single point]
CCCCC[C@@H]1C=C(C(=O)O)[C@H](c2ccc(CC)cc2)N1S(=O)(=O)c1ccc(C)cc1		inconclusive [inhibitor, partial curve]
NCCCC[C@@H]1NC(=O)[C@H](CCC(=O)O)NC(=O)c2cc([N+](=O)[O-])cc(I)c2SC[C@@H](C(=O)NCC(N)=O)NC1=O	inactive: 19%	
Cc1ccc(O)c(NC(=O)c2ccc3c(c2)C(=O)N(CC(C)C)C3=O)c1	inactive: -4.1%	
CCCNC(=O)C1(C)CCN(Cc2ccc3ccccc3c2Br)C1 (stereo not drawn)	inactive: -13.5%	
CSCCC(NC(=O)c1ccc(Cl)c([N+](=O)[O-])c1)C(=O)N1CCN(C/C=C/c2ccccc2)CC1 (stereo not drawn)	inactive: -9.02%	
O=C1c2ccccc2C(Nc2ccc(F)c(Cl)c2)N1Cc1ccco1 (stereo not drawn)		inconclusive [inhibitor, single point]
Nc1ccc2ccccc2c1C(=O)c1ccccc1		inconclusive [inhibitor, full curve]
O=C(O)c1[nH]c2ccccc2c1C(c1cc(Cl)cc([N+](=O)[O-])c1O)c1c(C(=O)O)[nH]c2ccccc12	inactive: -6.64%	
O=C(Cc1ccc(S(=O)(=O)N2CCOCC2)s1)N1CCN(S(=O)(=O)c2cccc(F)c2)CC1		inconclusive [inhibitor, single point]
O=C1Nc2ccccc2N=C(c2ccccc2)C1N1CCOCC1 (stereo not drawn)	inactive: 8.66%	
C=CCN(CC=C)Cc1cc(=O)oc2cc(C)ccc12		inconclusive [inhibitor, partial curve]
COc1ccc(CC(=O)Nc2cccc(SC)c2)cc1OC		inconclusive [inhibitor, single point]
O=C(Nc1ccc2nc([C@@H]3O[C@H](CO)[C@@H](O)[C@H](O)[C@H]3O)[nH]c2c1)NC(c1ccccc1)c1ccccc1		inconclusive [inhibitor, single point]
C=CCC(C#N)(c1ccc(OC)c(OC)c1)c1cnccn1 (stereo not drawn)		inconclusive [inhibitor, full curve]
C=CCN(c1ccccc1)S(=O)(=O)c1cccc(C(=O)NCC(c2cccs2)N2CCOCC2)c1 (stereo not drawn)		inconclusive [inhibitor, single point]
O=C(c1ccc(-c2ccccc2Cl)o1)N1CCC1		inconclusive [inhibitor, partial curve]
O=C(NCc1ccc(C(F)(F)F)cc1)c1cccc2c(-c3cccnc3)coc12		inconclusive [inhibitor, single point]
Cc1ccc(C)c(N2CCN(C(=O)C3CCCN(c4ncnc5c4nc4n5CCCCC4)C3)CC2)c1 (stereo not drawn)		inconclusive [inhibitor, partial curve]
CCCCn1nnnc1C(c1cc2ccccc2o1)N(C)Cc1ccccc1 (stereo not drawn)		inconclusive [inhibitor, full curve]
CC(=O)C1=C(O)C(=O)N(c2ccc(Br)cc2)C1c1cccc(F)c1 (stereo not drawn)		inconclusive [inhibitor, partial curve]
Cc1ccc(S(=O)(=O)N2[C@@H](c3ccc(Br)cc3)C(C(=O)O)=CC[C@H]2c2ccc(Cl)cc2)cc1		inconclusive [inhibitor, partial curve]

SMILES	activity, negative = inhibition	Potency
COc1ccc([C@H]2CC(=O)C=C(c3cccc(OC(F)(F)F)c3)C2)cc1		inconclusive [inhibitor, partial curve]
COc1ccc(OC(C)C(=O)NC2CCCCCCC2)cc1 (stereo not drawn)		inconclusive [inhibitor, single point]
CC(=O)N(c1nnc(-c2cccc(C)c2)s1)C1CCCC1		inconclusive [inhibitor, full curve, poor fit]
CCCCCCCCCC(=O)N[C@@H]1c2cc(OC)c(OC)cc2C[C@H]1OCc1ccccc1	inactive: 2.09%	
C#CCN1C=C(C(=O)OCC)C(C)N(Cc2ccccc2I)S1(=O)=O (stereo not drawn)		inconclusive [inhibitor, full curve]
COCCCn1c(-c2ccccc2)nc2ccccc2c1=O		inconclusive [inhibitor, single point]
N=c1c2c(ncn1CCCO)Oc1ccc3ccccc3c1C2c1ccccc1 (stereo not drawn)	inactive: -18.1%	
OC(c1ccc2ccccc2n1)c1c(Cl)cccc1Cl (stereo not drawn)		inconclusive [inhibitor, full curve]
O=C(Nc1ccccc1Cl)N1CCSc2ccccc21		inconclusive [inhibitor, partial curve]
CCOC(=O)C1(Cc2ccccc2Cl)CCN(C(=O)c2cc(C)on2)CC1		inconclusive [inhibitor, full curve, poor fit]
Cc1ccc(CNC(=O)C2CC(=O)N(C3CCCC3)C2)cc1 (stereo not drawn)		inconclusive [inhibitor, single point]
CCO/C=C1/C(=O)N(c2ccccc2OC)C(=O)c2ccccc21	inactive: 4.09%	
Fc1ccc(-n2nnc(-c3ccccc3)n2)cc1	inactive: -12.2%	
CC1CC(C)CN(C(=O)C2CCC(CNS(=O)(=O)c3ccccc3)CC2)C1 (stereo not drawn)		inconclusive [inhibitor, full curve, poor fit]
O=C(CSc1ncc(-c2ccc(F)cc2)[nH]1)N1CCCCC1	inactive: 0.684%	
Cn1nc(C(F)(F)F)c(-c2cccc(C(F)(F)F)c2)c1NC(=O)c1ccco1		inconclusive [inhibitor, partial curve]
Cc1ccc(-c2ccc(/C=C3\C(=O)ON=C3c3ccccc3)o2)c([N+](=O)[O-])c1		inconclusive [inhibitor, single point]
CCCCCCCCCCOC(=O)Cn1c(COc2ccc(OC)cc2)[n+](C)c2ccccc21		inconclusive [inhibitor, partial curve]
CCCCCCCCCCCC(=O)NC(Cc1ccc(OC)c([N+](=O)[O-])c1)C(=O)O (stereo not drawn)		inconclusive [inhibitor, partial curve]
COc1ccc(OC)c(-c2nc3ccccc3nc2-c2ccccc2)c1		inconclusive [inhibitor, partial curve]
O=S(=O)(O)c1cccc(N=Nc2c(O)ccc3ccccc23)c1		active: 35.5 µM
Cc1ccc(OCC(=O)Nc2nnc(S(=O)(=O)N3CCCCCC3)s2)cc1		inconclusive [inhibitor, single point]
